Single values are uncertain, as repeats are few or missing.
Legend:
CHO-K1 [1] = test: micronucleus frequency (% of nucleated events); higher = more micronuclei (genotoxic)
CHO-K1 [2] = test: hypodiploid nuclei frequency (% of nucleated events); higher = more hypodiploid events (aneugenic)
Experimental: (§1)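 Flow-cytometric in vitro micronucleus assay (Litron MicroFlow) in CHO-K1 cells in 96-well plates, 19 concentrations (4.5-200 µM, n=1 per concentration). Without S9, cells were exposed for 24 h and sampled at 48 h. With Aroclor 1254-induced rat liver S9, cells were exposed for 3-4 h and sampled at 27-28 h. Read-outs are %MN and %hypodiploid nuclei relative to nucleated events, and relative survival as the nuclei-to-bead ratio versus the 1% DMSO vehicle control (x100).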

CHO-K1 [3] = test: relative survival (nuclei to bead ratio vs DMSO control) (% of vehicle control); higher = more surviving cells
Experimental: as §1
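For hypodiploid nuclei frequency (% of nucleated events) in this document: hypodiploid nuclei gated on a flow cytometer with 488 nm excitation after SYTOX Green staining, cultures at 37 °C, positive controls vinblastine without S9 and cyclophosphamide with S9.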
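For micronucleus frequency (% of nucleated events) in this document: cells lysed with nuclei stained by SYTOX Green, then micronucleus-gated events counted against nucleated events by flow cytometry with 488 nm excitation.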
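For relative survival (nuclei to bead ratio vs DMSO control) in this document: Lysed-cell nuclei stained with SYTOX Green and counted against counting beads by flow cytometry at 488 nm excitation, with vinblastine (no S9) and cyclophosphamide (plus S9) as positive controls.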

O=S(=O)(O)c1ccc(N=Nc2c(O)ccc3cc(S(=O)(=O)O)ccc23)cc1 [FD&C Yellow 6]
Conditions | hypodiploid nuclei frequency, CHO-K1 [2] [%] | micronucleus frequency, CHO-K1 [1] [%] | relative survival, CHO-K1 [3]
concentration: 4.5 (µM), S9 metabolic activation: with S9, exposure time: 3-4 hours | 0.36 | 1.3 | 148
concentration: 4.5 (µM), S9 metabolic activation: without S9, exposure time: 24 hours | 0.46 | 1.28 | 114
concentration: 5.63 (µM), S9 metabolic activation: with S9, exposure time: 3-4 hours | 0.2 | 1.32 | 158
concentration: 5.63 (µM), S9 metabolic activation: without S9, exposure time: 24 hours | 0.54 | 1.44 | 104
concentration: 7.04 (µM), S9 metabolic activation: with S9, exposure time: 3-4 hours | 0.3 | 1.46 | 133
concentration: 7.04 (µM), S9 metabolic activation: without S9, exposure time: 24 hours | 0.74 | 2.18 | 103
concentration: 8.8 (µM), S9 metabolic activation: with S9, exposure time: 3-4 hours | 0.2 | 1.78 | 185
concentration: 8.8 (µM), S9 metabolic activation: without S9, exposure time: 24 hours | 0.6 | 2.06 | 99
concentration: 11 (µM), S9 metabolic activation: with S9, exposure time: 3-4 hours | 0.12 | 1.66 | 156
concentration: 11 (µM), S9 metabolic activation: without S9, exposure time: 24 hours | 0.76 | 1.58 | 123
concentration: 13.7 (µM), S9 metabolic activation: with S9, exposure time: 3-4 hours | 0.2 | 1.34 | 129
concentration: 13.7 (µM), S9 metabolic activation: without S9, exposure time: 24 hours | 0.58 | 2.16 | 130
concentration: 17.2 (µM), S9 metabolic activation: with S9, exposure time: 3-4 hours | 0.18 | 1.46 | 136
concentration: 17.2 (µM), S9 metabolic activation: without S9, exposure time: 24 hours | 0.78 | 2.26 | 113
concentration: 21.5 (µM), S9 metabolic activation: with S9, exposure time: 3-4 hours | 0.16 | 1.68 | 119
concentration: 21.5 (µM), S9 metabolic activation: without S9, exposure time: 24 hours | 0.74 | 2.12 | 107
concentration: 26.8 (µM), S9 metabolic activation: with S9, exposure time: 3-4 hours | 0.22 | 1.76 | 193
concentration: 26.8 (µM), S9 metabolic activation: without S9, exposure time: 24 hours | 6.04 | 1.38 | 112
concentration: 33.6 (µM), S9 metabolic activation: with S9, exposure time: 3-4 hours | 0.14 | 1.16 | 144
concentration: 33.6 (µM), S9 metabolic activation: without S9, exposure time: 24 hours | 0.92 | 1.34 | 134
concentration: 41.9 (µM), S9 metabolic activation: with S9, exposure time: 3-4 hours | 0.2 | 1.12 | 126
concentration: 41.9 (µM), S9 metabolic activation: without S9, exposure time: 24 hours | 0.76 | 1.12 | 135
concentration: 52.4 (µM), S9 metabolic activation: with S9, exposure time: 3-4 hours | 0.46 | 1.56 | 118
concentration: 52.4 (µM), S9 metabolic activation: without S9, exposure time: 24 hours | 0.8 | 1.12 | 101
concentration: 65.5 (µM), S9 metabolic activation: with S9, exposure time: 3-4 hours | 0.16 | 1.5 | 111
concentration: 65.5 (µM), S9 metabolic activation: without S9, exposure time: 24 hours | 1.76 | 1.22 | 108
concentration: 81.9 (µM), S9 metabolic activation: with S9, exposure time: 3-4 hours | 0.16 | 1.06 | 132
concentration: 81.9 (µM), S9 metabolic activation: without S9, exposure time: 24 hours | 1.8 | 0.96 | 114
concentration: 102 (µM), S9 metabolic activation: with S9, exposure time: 3-4 hours | 0.16 | 1.08 | 158
concentration: 102 (µM), S9 metabolic activation: without S9, exposure time: 24 hours | 1.32 | 1.7 | 125
concentration: 128 (µM), S9 metabolic activation: with S9, exposure time: 3-4 hours | 0.08 | 1.12 | 113
concentration: 128 (µM), S9 metabolic activation: without S9, exposure time: 24 hours | 4.32 | 1.6 | 101
concentration: 160 (µM), S9 metabolic activation: with S9, exposure time: 3-4 hours | 0.2 | 1.46 | 116
concentration: 160 (µM), S9 metabolic activation: without S9, exposure time: 24 hours | 3.48 | 2.46 | 122
concentration: 200 (µM), S9 metabolic activation: with S9, exposure time: 3-4 hours | 0.28 | 1.48 | 105
concentration: 200 (µM), S9 metabolic activation: without S9, exposure time: 24 hours | 5.42 | 1.94 | 99
